Data reported in PubChem BioAssay AID1645887 (National Center for Advancing Translational Sciences (NCATS), 2021).
Several values for one entry are separate records, joined by “and”; a condition that tells them apart may be missing. Equal entries are not always repeated. Among all 16,000 compounds or so, about 40 (0.2%) were called active. Not shown: some 1% with an inconclusive outcome. The call rests on the fitted dose curve; in most records, active means well fitted activation curve with a large enough effect; inconclusive means small, poorly fitted or top-dose-only effect, or another doubt; inactive means no such curve, though single readings can be large or run the other way. This is one part of the list. Starred links: 1 amine or outer side, 2 acyl side, 3 side chain; linkers in the order of their positions; H or OH if unused. Positions of bridges follow the written chain, without caps; N, C: chain ends. Non-standard residues stand in square brackets, D forms with d. Residues, ends and D or L forms follow the SMILES beside them. *: point of attachment. X6 = NC1=N[C@@H](O)C[C@H]([C@H](N[*:1])C(=O)[*:2])N1; ΔAla(3-NHCONH2) = NC(=O)NC=C(N)C(=O)O; β3hOrn = NCCC[C@H](N)CC(=O)*; Dap = NC[C@H](N)C(=O)O

Each compound was assayed against Rap guanine nucleotide exchange factor 4 (Homo sapiens) (UniProt Q8WZA2) (assay: Validation qHTS for agonist of cAMP-regulated guanine nucleotide exchange factor 4 (EPAC2)). Details: EPAC2 Rap1B BODIPY-GDP exchange, fluorescence; activation: stronger effect = higher value.
Outline: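 Signal normalized against 6.5 mM cAMP as agonist control. Mix of EPAC2 (100 nM), RAP1B-BODIPY-GDP (250 nM) and GDP (50 uM) was read kinetically at 480/540 nm, every 5 min over 30 min, after 5 min room-temperature incubation with compound.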
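Further: exchange makes BODIPY-GDP fluorescence drop when released from Rap1B; series mostly up to about 150 µM.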
On the % scale 0 is the no-effect control and ±100 the full control effect.

Chain of UniProt Q8WZA2 (Q8WZA2 whole entry, looked up): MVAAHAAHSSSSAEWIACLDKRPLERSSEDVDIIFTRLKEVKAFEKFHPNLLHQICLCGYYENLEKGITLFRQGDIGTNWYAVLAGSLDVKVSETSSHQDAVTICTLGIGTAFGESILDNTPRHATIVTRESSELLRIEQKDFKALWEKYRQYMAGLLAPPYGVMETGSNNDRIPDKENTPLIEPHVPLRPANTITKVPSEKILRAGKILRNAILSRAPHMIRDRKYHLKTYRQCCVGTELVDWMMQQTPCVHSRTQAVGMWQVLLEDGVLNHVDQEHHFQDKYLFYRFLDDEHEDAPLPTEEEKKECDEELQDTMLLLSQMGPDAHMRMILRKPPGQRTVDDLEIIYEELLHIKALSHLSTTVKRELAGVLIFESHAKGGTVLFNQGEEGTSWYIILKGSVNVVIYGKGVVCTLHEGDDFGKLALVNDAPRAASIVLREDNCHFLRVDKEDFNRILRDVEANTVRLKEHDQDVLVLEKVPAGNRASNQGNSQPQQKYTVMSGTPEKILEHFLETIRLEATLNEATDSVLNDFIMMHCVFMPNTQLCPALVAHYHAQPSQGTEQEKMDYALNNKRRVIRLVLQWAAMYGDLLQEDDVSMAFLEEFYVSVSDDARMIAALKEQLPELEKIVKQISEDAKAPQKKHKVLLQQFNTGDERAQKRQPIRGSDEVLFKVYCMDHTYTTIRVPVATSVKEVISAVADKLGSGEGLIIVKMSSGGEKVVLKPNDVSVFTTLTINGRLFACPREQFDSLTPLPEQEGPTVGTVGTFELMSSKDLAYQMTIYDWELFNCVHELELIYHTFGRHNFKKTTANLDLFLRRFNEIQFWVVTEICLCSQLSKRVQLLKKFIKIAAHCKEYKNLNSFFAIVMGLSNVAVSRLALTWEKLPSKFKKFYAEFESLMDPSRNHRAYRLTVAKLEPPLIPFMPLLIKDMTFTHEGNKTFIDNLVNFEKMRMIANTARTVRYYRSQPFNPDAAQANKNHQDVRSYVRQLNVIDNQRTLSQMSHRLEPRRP

activation, inactive:
CC(C(=O)O)c1ccc(N2Cc3ccccc3C2=O)cc1 (stereo not drawn) -2.3%
NCCC[C@H](N)CC(=O)N[C@H]1CNC(=O)[C@H]([C@H]2C[C@H](O)N=C(N)N2)NC(=O)C(=CNC(N)=O)NC(=O)[C@H](CO)NC(=O)[C@H](CO)NC1=O (β3hOrn-[Dap]SS[ΔAla(3-NHCONH2)][X6]; lactam 1-C) -11.7%
COc1ccccc1CCn1c(=O)c(-c2cn(C)c3ccccc23)nc2cncnc21 -7.24%
O=C(c1ccccc1)C(c1ccccc1)[n+]1csc2ccccc21 (stereo not drawn) -10.4%
COC(=O)[C@H](CC(C)C)NS(=O)(=O)N(Cc1ccccc1)[C@@H](CC(C)C)C(=O)OC -36.5%
CC(NN)c1ccccc1 (stereo not drawn) -23.2%
COC(=O)[C@H]1Cc2c([nH]c3ccccc23)CN1C(=O)COc1ccc2c(C)cc(=O)oc2c1 -15.4%
COC(=O)c1cn([C@@H]2C[C@@H](C(=O)N3CCCCCC3)N(Cc3cc4ccccc4s3)C2)nn1 -9.69%
C=Nc1ccc(/C=C/c2ccnc3ccccc23)cc1 9.85%
CN(C)c1nc(-c2ccccc2C(F)(F)F)nc2ccccc12 -19.3%
Oc1ccc(OCc2ccccc2)cc1 5.35%
COCCn1c(=O)c(-c2ccc(F)cc2)nc2cnc(Oc3ccccc3)nc21 2.49%
COc1cc(O)c2c(=O)cc(-c3ccccc3)oc2c1 -9.41%
CC(C)C[C@@H](COc1ccccc1)N1CCN(CCc2ccccc2)CCC1=O -16.1%
COc1ccc(OC)c(-c2ccc(O)c(CN3CCc4c([nH]c5ccccc45)C3)c2)c1 7.59%
c1ccc(CNc2ccnc(-c3ccoc3)n2)cc1 -0.57%
CC(=O)OCC(=O)[C@@]1(O)CC[C@H]2[C@@H]3CCC4=CC(=O)CC[C@]4(C)C3=CC[C@@]21C -5.3%
COC(=O)CNC(=O)C(=O)OC 5.94%
CCCn1c(=O)c2c(ncn2C)n(CCC)c1=O 2.02% and 5.72%
COc1cccc(CNC(=O)c2c(OC)cc(=O)n3c2CCN(C(=O)c2cc(F)cc(F)c2)CC3)c1 -4.78%
C[C@H]1C[C@H]2[C@@H]3CCC4=CC(=O)C=C[C@]4(C)[C@@]3(F)[C@@H](O)C[C@]2(C)[C@@]1(O)C(=O)CO -18.1%
COc1cccc(-c2cncnc2Nc2ccccc2)c1 -4.51%
COc1cccc(Cn2c(=O)c(CCc3ccccc3)nc3cnc(OC)nc32)c1 8.19%
